Assay [1] has as its target T1, lexA-HisRS (Gcn2 residues 970–1497) D1327K (S. cerevisiae) (UniProt P15442).
T1 sequence: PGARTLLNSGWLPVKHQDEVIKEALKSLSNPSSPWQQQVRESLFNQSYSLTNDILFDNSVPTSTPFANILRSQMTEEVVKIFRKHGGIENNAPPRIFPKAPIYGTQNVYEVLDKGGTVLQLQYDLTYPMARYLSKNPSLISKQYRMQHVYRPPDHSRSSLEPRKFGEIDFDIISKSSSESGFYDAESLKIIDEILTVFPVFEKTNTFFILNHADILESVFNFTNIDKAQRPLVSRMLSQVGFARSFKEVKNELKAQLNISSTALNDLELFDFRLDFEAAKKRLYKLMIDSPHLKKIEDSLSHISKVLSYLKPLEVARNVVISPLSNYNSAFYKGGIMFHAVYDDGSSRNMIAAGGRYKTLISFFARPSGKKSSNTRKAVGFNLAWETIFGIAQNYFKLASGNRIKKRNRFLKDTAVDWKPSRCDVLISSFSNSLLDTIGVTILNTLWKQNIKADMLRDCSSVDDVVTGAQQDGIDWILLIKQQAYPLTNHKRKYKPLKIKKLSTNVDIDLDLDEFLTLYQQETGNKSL
The assay can be described thus: condition: only cells starved for isoleucine/valine with sulfometuron methyl (0.5 μg/mL); two-hybrid; as a1, but cells starved for isoleucine/valine with sulfometuron methyl (0.5 μg/mL).

The target of assay [2] is T2, lexA-HisRS (Gcn2 residues 970–1497) D1327A (S. cerevisiae) (UniProt P15442).
T2 sequence: T1 sequence with K358A
Described as above.

Assay [3] addresses T1, lexA-HisRS (Gcn2 residues 970–1497) D1327K (S. cerevisiae). The assay can be described thus: two-hybrid; lexA-HisRS and B42-CTD fusions in yeast with lexAop-lacZ reporter; β-galactosidase activity in cell extracts of three or more transformants; galactose/raffinose medium, nonstarvation conditions.
In assay [4] the target is T3, lexA-HisRS (Gcn2 residues 970–1497) Y1092C/T1328S/A1353V/D1327K (S. cerevisiae) (UniProt P15442).
T3 sequence: T1 sequence with Y123C, T359S, A384V
Described as above.

Assay [5] deals with T4, lexA-HisRS (Gcn2 residues 970–1497), wild type (S. cerevisiae) (UniProt P15442).
T4 sequence: T1 sequence with K358D
The description is as above.

Assay [6] has as its target T2, lexA-HisRS (Gcn2 residues 970–1497) D1327A (S. cerevisiae). The description is as above.
For assay [7], the target named is T5, lexA-HisRS (Gcn2 residues 970–1497) Y1092C/T1328S/A1353V (S. cerevisiae) (UniProt P15442).
T5 sequence: T1 sequence with Y123C, K358D, T359S, A384V
The description is as above.

Changes are numbered by the printed parent chain. Results are given in words; binding and its absence hold for the method and conditions named. Some results given as binding are weak or reduced against the parent protein; the word gives no strength. Tags and fused reporters may be left off the sequences shown.

This passage reports binding results from PMC4335047, “Interaction between the tRNA-Binding and C-Terminal Domains of Yeast Gcn2 Regulates Kinase Activity In Vivo” (PLoS Genetics, 2015).

B1: B42-CTD (fusion of the B42 activation domain to the Gcn2 CTD) (domain or fragment, UniProt P15442 1498-1659)
chain: INDSLTLGDKADEFKRWDENSSAGSSQEGDIDDVVAGSTNNQKVIYVPNMATRSKKANKREKWVYEDAARNSSNMILHNLSNAPIITVDALRDETLEIISITSLAQKEEWLRKVFGSGNNSTPRSFATSIYNNLSKEAHKGNRWAILYCHKTGKSSVIDLQR
In the case of B1, the binding result in assay [1] is recorded as “no binding”; in assay [2], “no binding”; in assay [3], “binds”; in assay [4] it was “binds”; in assay [5] it was “binds weakly”; in assay [6] it was “binds”. The binding result in assay [7] is “binds weakly”.
